# Reference: ChEMBL document CHEMBL4888484, “Replenishing the malaria drug discovery pipeline: Screening and hit evaluation of the MMV Hit Generation Library 1 (HGL1) against asexual blood stage Plasmodium falciparum ,using a nano luciferase reporter read-out” (2022)
# About 540 (0.36%) of roughly 150,000 compounds showed an effect of 50% or more. The list shows a part of the results.
# Test system: Plasmodium falciparum
# Test: Primary screen in NF54 nanoGlo assay, in single point, at 2uM, 72h; a lower Z score goes with more inhibition
# Type: functional, Erythrocyte
# Details: timepoint 72 hour
Compound,% Inhibition,Z score
O=C(c1ccc(F)cc1)N1CCC2(CC1)N(c1ccccc1)C(=O)CS2(=O)=O,-14%,2.17
Cc1cc(C)n(-c2ccc(CCC(=O)N3CCC4(CC3)OCCO4)cc2)n1,1%,-0.11
CNC(=O)C[C@H]1CS(=O)(=O)CCN1C(=O)C1C(C)(C)C1(C)C,-2%,0.4
Nc1ncccc1OC[C@@H]1CCCN2CCCC[C@H]12,-10%,1.3
CN1CCN(Cc2cscn2)C2(CCCCC2)C1,2%,-0.18
COc1cc(CCNC2CCOC(C(F)(F)F)C2)ccc1C (configuration not stated),-1%,0.16
Cc1oncc1C(=O)N1C[C@H](c2cc(F)cc(F)c2)[C@@H]2[C@H]1C1CCN2CC1,-4%,0.74
CC(C)N1CCN(C(=O)COc2ccc3ccccc3c2)CC1,9%,-1.15
O=C([C@@H]1COCC(=O)N1Cc1cccs1)N1CCC2(CC1)OCCO2,-9%,1.61
CCN(CC(F)(F)F)C(=O)Nc1ccc2[nH]c(=O)oc2c1,-13%,1.86
Cc1cccc(OCC(=O)N2CCN(Cc3ncnn3C)CC2)c1C,-12%,1.33
COc1ccccc1[C@H]1N(c2ccccn2)C(=O)[C@@H]2CCCN21,4%,-0.55
Cc1nc(CN2C(C)CC3CCCCC32)oc1C (configuration not stated),-1%,0.16
COc1c(C)[nH]cc(CN(C)c2cc(-n3ccnc3)ncn2)c1=O,-5%,0.97
O=C(NCC12CCN(CC1)CC2)c1cc(F)c(Cl)cc1F,-7%,1.11
CC(C)(C)C1C=CC(NCC2(CO)CCOCC2)CC1 (configuration not stated),-3%,0.65
Cc1cc(-c2c(C#N)c(N)nc3c2[C@@H]2CC[C@H](C3)N2)oc1C,0%,0.03
C[C@H]1CN(Cc2ccc(C#N)cc2)CCN1C(=O)Cc1csc(-c2cccnc2)n1,-5%,0.45
Cc1nnc([C@H](C)NCC23CCC(CC2)N3C(=O)OC(C)(C)C)[nH]1,13%,-1.76
CC(C)(C)N1C(=O)NC(=O)C2(Cc3ccccc3N3CCN(c4ccccc4)CC32)C1=O (configuration not stated),4%,-0.53
CCc1nc([C@H](C)Nc2ccc3oc(=O)[nH]c3c2)oc1-c1ccccc1,-15%,1.78
Cc1ccc(C(=O)N2C[C@@H](c3ccccc3)[C@@H]3[C@H]2C2CCN3CC2)c(=O)n1C,0%,-0.05

Compound,% Inhibition,Z score
Clc1snnc1CN1CCC2CCCCC2C1 (configuration not stated),-2%,0.23
Cc1nc(NC(=O)N2CCN3CCC[C@H]3C2)ccc1Br,0%,0.06
CC(=O)c1c(O)nc(=O)n(C2CCCCCC2)c1O,12%,-1.55
CN1CC=C(c2noc(CCC(=O)Nc3nccs3)n2)CC1,-9%,1.7
Brc1cnc(N2Cc3cccnc3C2)nc1,-24%,2.72
Cc1cccc(Nc2nc(-c3ccc4c(c3)oc(=O)n4C)cs2)c1,-27%,3.16
O=C(c1ccc(C(F)(F)F)nc1)N1C2CCC1c1cncnc1C2 (configuration not stated),-21%,2.67
COc1ccc(-c2oc(=O)n(Cc3cccc(OC)c3)c2-c2ccc(OC)cc2)cc1,-8%,1.05
c1coc(CN[C@H]2CN3CCC2CC3)c1,-7%,1.33
Fc1ccccc1CCN[C@H]1CCOC1,-1%,0.14
Cc1ccc(C(=O)N2[C@H]3CC[C@@H]2c2cnc(C)nc2C3)cn1,6%,-0.91
CCn1nc(C(=O)N2CCC3(CC2)OCCO3)cc1-c1cccc(Cl)c1,0%,0.04
CCc1ccc(CNC2=NCCN2)cc1,-15%,2.03
CN(CCc1ccc2c(c1)CCO2)Cc1cnccn1,-7%,1.05
C=CCn1c(=O)oc2ccc(C(=O)N3CCN(c4cccc(Cl)c4)CC3)cc21,-8%,1.06
O[C@@H](CNC1CCCC1)c1ccccc1,14%,-1.73
CC1CC1c1nc(-c2ccc3oc(=O)[nH]c3c2)no1 (configuration not stated),-8%,1.58
CCN1Cc2cccnc2N2CCC[C@H]2C1,-5%,0.54
CC1CCN(C[C@H]2C[N@@]3CC[C@H]2C[C@@H]3CNS(=O)(=O)c2ccc(Cl)cc2)CC1,12%,-1.91
O=C(Nc1cccc(Cl)c1)Oc1ccccc1-c1ccccc1,-6%,0.98
Cc1ccc(S(=O)(=O)Nc2ccc(C(=O)N3CCC(=O)CC3)cc2)cc1C,6%,-1.04
O=C1[C@@H]2C[C@@H](CN2)N1c1ccc(F)c(F)c1,-10%,1.79

Compound,% Inhibition,Z score
CNc1nc(C)c(C(=O)N2C[C@H](c3ccccc3)[C@@H]3[C@H]2C2CCN3CC2)s1,-10%,0.9
COc1cccc2c1OC[C@@]1(C(=O)O)CN(C(=O)c3ccc(Cl)cc3)C[C@@H]21,2%,-0.46
CCCc1nc(C(N)=O)nn1Cc1c(C)cc(C)nc1OC,1%,-0.15
Cc1cccc(-n2nnnc2C2(NC3CCCCC3)CCCCC2)c1,-9%,1.17
O=C(O)C1C2CC1CN(Cc1ccccc1)C2 (configuration not stated),4%,-0.69
C#CCN(C)C[C@H]1C[N@@]2CC[C@H]1C[C@@H]2CNC(=O)c1ccccc1,33%,-3.75
COc1cccc(C2=NO[C@H](C(=O)N3CCC4(CC3)OCCO4)C2)c1,-3%,0.49
CCN(CC)C(=O)Oc1ccc2c(ccn2Cc2cc(C)cc(C)c2)c1NC(=O)c1cc(C(F)(F)F)cc(C(F)(F)F)c1,-6%,0.85
C[C@@H](Cc1c(Cl)cccc1Cl)NC(=O)CCc1nnc[nH]1,-7%,1.22
Cc1cc(N2CCN(C)CC2)nc(C2CC2)n1,-12%,1.58
c1cc2c(c(-c3cnccn3)c1)CCNC2,-4%,0.84
CNS(=O)(=O)c1ccc([C@@H]2CC(=O)Nc3cc4oc(=O)[nH]c4cc32)cc1,9%,-0.88
CN1CC[C@@H]2CN(C(=O)C3C(C)(C)C3(C)C)C[C@@H]21,-8%,1.13
CN(C)C(=O)Oc1ccc(OCc2n(C)c3ccccc3[n+]2C)cc1,-11%,2.15
CCCS(=O)(=O)N1C[C@@H]2C[C@H](C1)c1c(-c3ccc4ccccc4c3)ccc(=O)n1C2,-1%,0.15
Cc1ccc2c(CC(=O)N3CCN(C)C[C@@H]3C)c[nH]c2c1,-6%,0.71
CCc1ccc(CN2CCN(C)[C@@]3(CCNC(=O)CC3)C2)nc1,-1%,0.21
CCC(CC)CNCCc1cnn(C)c1C,-10%,1.38
CCCS(=O)(=O)N1C[C@@H]2C[C@H](C1)c1ccc(-c3ccc(OC)cc3)c(=O)n1C2,-1%,0.13
Cc1ncc(CNc2ccn(CC(F)F)n2)c(C)n1,-11%,1.52
CC(C)(C)C1CCC(N2CCC[C@H](O)C2)CC1 (some centres not stated),-14%,2.15
CC(C)=CCN[C@@H](C)Cn1cc(C)cn1,-2%,0.31

Compound,% Inhibition,Z score
C[C@H]1CN(C(=O)c2cccc3[nH]c(=O)oc23)CC2(CCC2)O1,9%,-1.08
CCOC(Cn1cc(C(=O)NCCC2CCCCC2)nn1)OCC,-17%,1.94
COCc1cc(-c2c(C#N)c(N)nc3c2N2CCC3CC2)ccc1OC,-4%,0.5
CN1CC2(C1)CN(C(=O)Cc1ccccc1)C[C@@H]1C[C@@H](O)CN12,-1%,0.12
CC1CN2CCCC2CN1S(=O)(=O)c1cccnc1 (configuration not stated),-2%,0.5
CN1CCC[C@@]2(CCN(C(=O)c3ccc(OCC(F)F)nc3)C2)C1,0%,-0.08
COc1cccc([C@H]2CN(c3ccnc(N)n3)[C@@H]3C4CCN(CC4)[C@H]23)c1,-1%,0.16
Cc1cc(CN2CCN(C(=O)Cc3n[nH]c(=O)c4ccccc34)CC2)on1,-10%,1.82
CC(Cc1ccccc1Br)NC(C)c1cccnc1 (configuration not stated),2%,-0.27
Cc1cc(CN2CCC3CCC(C2)N3C(C)C)on1 (configuration not stated),-10%,1.29
Cc1sc2ncnc(N3CCN4CCC[C@H]4C3)c2c1C,-5%,0.64
CCc1c(C(=O)NC2CC2)c(=O)cc(C)n1C[C@H]1CCCN1CC,0%,-0.06
CN1CC[C@@](OC(=O)c2ccccc2)(c2ccccc2)C(C)(C)C1,-13%,2.13
CN1N=C(c2c(O)n(C)c(=O)n(C)c2=O)C[C@H]1c1ccccc1,-21%,3.03
CN(C(=O)C1CC12CCCCC2)C1CN2CCC1CC2 (configuration not stated),-8%,1.54
O=C(Oc1cccc(OC(=O)N2CCOCC2)c1)N1CCOCC1,5%,-0.99
C=C(C)COc1ccc(NC(=O)N[C@H]2CN3CCC2CC3)cc1,4%,-0.69
CN(Cc1ccc2ccccc2n1)C(=O)CN1CC2(CCCC2)CC1=O,-4%,0.55
C1=COC(CNC(Cc2ccccn2)c2ccccc2)CC1 (configuration not stated),-6%,0.8
C=CCCC(CN1C[C@H]2CC=CC[C@H]2C1)Oc1cc(CC)ncn1 (some centres not stated),-27%,2.39
